SMILES strings stand for the structures. Several values for one entry are separate records, joined by “and”; a condition that tells them apart may be missing. Identical values can stand only once.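 Assay format: 96-well plates, 48-hour exposure. The concentration for 50% growth inhibition is given as GI50. TGI: total growth inhibition.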

The test relates to NCI-H322M lung. Briefly: inhibition of tumour cell growth, NCI panel, 48 h.
As for `COC(=O)N/N=C(\Cc1ccccc1)CN(C)C`, the TGI is > 100 µM. Still for that read-out and setting: the figure for `C[C@]12C=CC(=O)C=C1CC[C@@H]1[C@@H]2CC[C@]2(C)OC(=O)CC[C@@H]12` is > 471 µM; for `COC(=O)C(=O)C(C(=O)C(=O)Nc1ccc(F)cc1)c1nc2ccc([N+](=O)[O-])cc2[nH]c1=O` (stereo not drawn) it is > 100 µM. Turning to `COc1ccc2cc(C(=O)/C=C/c3ccc(Cl)cc3Cl)ccc2c1`, the GI50 was 31.4 µM and the TGI was > 100 µM.

As for `CCN(CC)CCCCNc1c2ccccc2[n+](C)c2c1[nH]c1ccccc12`, the GI50 was 0.328 µM and the TGI was found to be 4.87 µM.

Turning to `NC(N)=N/N=C/c1c(-c2ccc(Cl)cc2)nc2sccn12`, the TGI was determined as 9.98 µM. As for `C#Cc1c(F)ccc2cc(O)cc(-c3ncc4c(N5CC6CCC(C5)N6)nc(OC[C@@]56CCCN5C[C@H](F)C6)nc4c3F)c12`, the GI50 is 11.9 µM and the TGI was 40.9 µM. As to `COc1cc(C[C@H]2c3cc(OC)c(OC)cc3CCN2C)c(Oc2cc3c(cc2OC)-c2c(OC)c(OC)cc4c2[C@H](C3)N(C)CC4)cc1OC`, the GI50 is 14.7 µM; the TGI was 20.5 µM and 28.3 µM. For the compound `COc1cc([N+](=O)[O-])c(OC)cc1-c1nc2sc(Cl)cn2c1/C(N)=N/C(=N)N`, the GI50 was 3 µM and the TGI came to 10.8 µM. Turning to `Cc1nc2ccccc2n1COC(Cn1ccnc1)c1ccc(Cl)cc1Cl` (stereo not drawn), the TGI is > 100 µM. In the case of `CC(C)(C)OC(=O)N1CCN(CCn2cc(C(F)(F)F)c3c(Cl)ncnc32)CC1`, the GI50 is 1.87 µM and the TGI came out at 3.77 µM. For `CCCCCCCCCCCCCCCCCCOc1ccccc1CC(=O)OCC[N+]1(C)CCCCC1`, in that order: 5.78 µM and 22.2 µM. Regarding `COc1ccc2c3c1O[C@]1(C)C34CCN(C)C(C2)C42C=C[C@@]1(OC)c1c(O)ccc(O)c12`, the TGI was > 100 µM. Still for that read-out and setting: under `CCCCNc1nc(C#N)c(N)s1` stands > 100 µM. Still for that read-out and setting: the figure for `Clc1ccc(NCc2nnc(CCCCCCCCc3nnc(CNc4ccc(Cl)cc4)o3)o2)cc1` is > 100 µM; for `CC(CCN)(CCN)[N+](=O)[O-]` it is > 100 µM; for `Cc1ccc(S(=O)(=O)N/N=C/c2c(O)ccc3ccccc23)cc1` it is 85.4 µM. The same measure, in the same setting: under `O=C(O)c1cc([N+](=O)[O-])cc2c(=O)c3cnccc3[nH]c12` stands > 100 µM; under `O=c1c2c(oc3ccccc13)-c1ccccc1OC2`, > 100 µM. For the compound `COc1ccc(C(=O)c2cc(OC)c(OC)c(OC)c2)cc1OC(=O)CCl`, the GI50 was 0.0809 µM and the TGI is > 100 µM. In the case of `CCCCCCCCCCCCCCCCCCNc1ccn(C2OC(COP(=O)(O)OCC3OC(n4cc(F)c(=O)[nH]c4=O)CC3O)C(O)C2O)c(=O)n1` (stereo not drawn), the TGI was > 100 µM. With `CCC(C)(CC(C)(C)C(=O)NCC(=O)NC(Cc1ccccc1)C(=O)NC(Cc1ccccc1)C(=O)NCC(=O)NC1CC(OC2CC(O)(C(=O)CO)Cc3c(O)c4c(c(O)c32)C(=O)c2c(OC)cccc2C4=O)OC(C)C1O)C(=O)NCC(C)O` (stereo not drawn), the GI50 was > 150 µg/mL and the TGI was > 150 µg/mL. On to `CCOC(=O)N1CCN(C=S)CC1`, for which the TGI is > 100 µM. For the compound `C=C1C(=O)O[C@H]2[C@H]1CC/C(COC(=O)NCc1ccc(Cn3c(=O)sn(CCCl)c3=O)cc1)=C\CC[C@@]1(C)O[C@@H]21`, the GI50 is 14.7 µM and the TGI was 28.4 µM. As to `CC(C)=CCC/C(C)=C/CC/C(C)=C/CC/C(C)=C/C=C/C=C(\C)CC/C=C(\C)CC/C=C(\C)CCC=C(C)C`, the TGI was > 100 µM.

Consider `Cc1ccc2c(c1)[nH]c(=S)n2/C=C1\C(=O)Oc2ccccc2C1=O`, for which the TGI was > 100 µM. On the same count and under the same terms, under `COC(=O)/C=C(/C)n1nc2ccccc2n1` stands > 100 µM; under `CS(=O)(=O)c1nc(-c2cc3c(c(S(C)(=O)=O)n2)CCC3)cc2c1CCCCC2`, > 100 µM; under `Oc1c(C(Nc2cccc3cccnc23)c2ccccc2)ccc2cccnc12` (stereo not drawn), > 100 µM. For the compound `COc1ccc(-c2cc(=O)[nH]c3c(OC)c4ccccc4c(OC)c23)cc1`, the GI50 is > 25.1 µM and the TGI is > 100 µM. As for `Cc1ccc(S(=O)(=O)n2cc(-c3cc(C(F)(F)F)ccn3)c3cc(Br)ccc32)cc1`, the TGI was 78.4 µM. The same measure, in the same setting: under `Cc1csc2c(=O)n(C3OC(CO)C(O)C3O)c(=O)[nH]c12` (stereo not drawn) stands > 100 µM; under `Oc1ccccc1/C=C/c1csnn1`, > 100 µM; under `O=S1(=O)N=C(SCc2ccccc2)N(c2ccccc2)c2ccncc21`, > 100 µM. Still for that read-out and setting: under `O=C(O)C(/C=C/c1ccccc1)c1ccccc1` (stereo not drawn) stands > 100 µM. On to `O=[N+]([O-])O.[Cu+2].[NH-]CC[NH-].[NH-]CC[NH-]`, for which the GI50 was > 10 µM and the TGI is > 10 µM.

(Values after PubChem BioAssay (NCI).)
